In the supplement of paper PMC9446081:
Hit rate of the full screen: of about 39,000 compounds, about 220 (0.56%) showed activity. The list shows a part of the results.

These compounds were tested on Escherichia coli K-12 BW25113 (assay: relative growth (OD600 normalised to plate interquartile mean) (fraction); higher = less growth inhibition, active = 0.2 or less). Conditions: 50 µM; LB; incubation time: overnight (16-24 h).
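Also: static incubation at 37 °C against the wild-type strain, values averaged over two biological replicates.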

Compound | relative growth
C[C@H](O)C#Cc1ccc2c(c1)O[C@H](CN(C)C(=O)c1ccccc1)[C@@H](C)CN([C@@H](C)CO)S2(=O)=O | inactive: 1
CSc1nc2nc(N)nc(N)c2s1 | inactive: 1
Cn1cnc(S(=O)(=O)N[C@H]2C=C[C@H](CC(=O)Nc3ccccc3)O[C@H]2CO)c1 | inactive: 0.986
COc1ccc(S(=O)(=O)Nc2ccc3c(c2)C(=O)N([C@@H](C)CO)C[C@@H](C)[C@@H](CN(C)Cc2ccc(C(=O)O)cc2)OCCCC[C@H](C)O3)cc1 | inactive: 1.01
COc1ccc([Si](C)(C)[C@H]2[C@H](CCO)O[C@@]3(C(=O)N(Cc4ccc(N(C=O)c5ccccc5)cc4)c4ccccc43)[C@@H]2C)cc1 | inactive: 1.05
C[C@@H]1CN([C@H](C)CO)C(=O)c2cc(NC(=O)Cn3cnnn3)ccc2O[C@@H]1CN(C)Cc1ccc(C(=O)Nc2ccccc2N)cc1 | inactive: 1
COCCOC(=O)N1C(=O)[C@@]2(c3cc(C#Cc4ccc(OC)cc4)ccc31)[C@H](C(=O)N1CCN(c3ncccn3)CC1)[C@H]1C(=O)O[C@H](c3ccccc3)[C@H](c3ccccc3)N1[C@@H]2c1ccccc1OCCO | inactive: 1.07
COc1c(C)c2c(c(O)c1CC=C(C)CCC(=O)OCCN1CCOCC1)C(=O)OC2 | inactive: 0.928
C[C@@H]1CCCCO[C@H](CN(C)Cc2ccc(C(F)(F)F)cc2)[C@H](C)CN([C@H](C)CO)C(=O)c2cc(NC(=O)Nc3cccc4ccccc34)ccc2O1 | inactive: 1.08
C[C@@H]1CN([C@@H](C)CO)C(=O)Cc2cc(NS(=O)(=O)c3ccccc3)ccc2O[C@H]1CN(C)Cc1ccc(-c2ccccc2)cc1 | inactive: 0.976
COC(=O)[C@H](Cc1ccc(-n2cc(-c3cccc(/C=C/C(=O)NO)c3)nn2)cc1)N1CC2=C[C@H]([C@@H](O)Cc3ccccc3)n3c(=O)n(C)c(=O)n3[C@@H]2[C@@H](C2CC2)O1 | inactive: 0.996
COCC(=O)N(C)C[C@H]1Oc2cc(C#CC(C)(C)O)ccc2S(=O)(=O)N([C@@H](C)CO)C[C@@H]1C | inactive: 1.02
C[C@@H]1CN([C@H](C)CO)S(=O)(=O)c2ccc(-c3cccc(F)c3)cc2O[C@@H]1CN(C)S(C)(=O)=O | inactive: 1.02
Cc1cccc(S(=O)(=O)N2C[C@@H](O)COC[C@H]3O[C@H](CC(=O)NCc4ccc(Cl)c(Cl)c4)CC[C@@H]32)c1 | inactive: 1.01
COc1ccc2c3c([nH]c2c1)[C@H](CO)N(C[C@]13CN(C1)S(=O)(=O)c1ccccc1)C(=O)c1cnccn1 | inactive: 0.994
